Measurements reported in a collection of fitness landscapes (doi:10.1126/science.1257360).
The other results are listed elsewhere or left out.

B1: PhoQ; a variant is named by its letters at X, in order, P23837 (parent)
chain: MKKLLRLFFPLSLRVRFLLATAAVVLVLSLAYGMVALIGYSVSFDKTTFRLLRGESNLFYTLAKWENNKLHVELPENIDKQSPTMTLIYDENGQLLWAQRDVPWLMKMIQPDWLKSNGFHEIEADVNDTSLLLSGDHSIQQQLQEVREDDDDAEMTHSVAVNVYPATSRMPKLTIVVVDTIPVELKSSYMVWSWFIYVLSANLLLVIPLLWVAAWWSLRPIEALAKEVRELEEHNRELLNPATTRELTSLVRNLNRLLKSERERYDKYRTTLTDLTHSLKTPLXXLQXXLRSLRSEKMSVSDAEPVMLEQISRISQQIGYYLHRASMRGGTLLSRELHPVAPLLDNLTSALNKVYQRKGVNISLDISPEISFVGEQNDFVEVMGNVLDNACKYCLEFVEISARQTDEHLYIVVEDDGPGIPLSKREVIFDRGQRVDTLRPGQGVGLAVAREITEQYEGKIVAGESMLGGARMEVIFGRQHSAPKDE

Variants of: B1
Assay: enrichment ratio after two sorts for PhoP signalling (ratio (wild type AVST 3.29)); higher = more functional
Details: with PhoP (E. coli)

Row | Variant | enrichment ratio
1 | INPG | ≤ 0.25
2 | PDFM | ≤ 0.25
3 | ACSQ | 2.76
4 | SGCD | ≤ 0.25
5 | ENRP | ≤ 0.25
6 | EIAC | ≤ 0.25
7 | PPYA | ≤ 0.25
8 | LFIT | ≤ 0.25
9 | ISFN | ≤ 0.25
10 | FTQI | ≤ 0.25
11 | KETF | ≤ 0.25
12 | KSDI | ≤ 0.25
13 | YQPF | ≤ 0.25
14 | NQPC | ≤ 0.25
15 | SDGP | ≤ 0.25
16 | IGSP | ≤ 0.25
17 | TKDQ | ≤ 0.25
18 | PVNH | ≤ 0.25
19 | YTHI | ≤ 0.25
20 | HPVF | ≤ 0.25
21 | FAPV | ≤ 0.25
22 | AIIY | ≤ 0.25
23 | SIVD | ≤ 0.25
24 | VRLD | ≤ 0.25
25 | FCGK | ≤ 0.25
26 | TVST | 7.94

Row | Variant | enrichment ratio
27 | ELIY | ≤ 0.25
28 | IFYA | ≤ 0.25
29 | GEVF | ≤ 0.25
30 | ARYK | ≤ 0.25
31 | FEWN | ≤ 0.25
32 | HGTQ | ≤ 0.25
33 | SPVR | ≤ 0.25
34 | GQIQ | 14.9
35 | IWWY | ≤ 0.25
36 | PGGP | ≤ 0.25
37 | EEGL | ≤ 0.25
38 | MARY | ≤ 0.25
39 | PCIG | ≤ 0.25
40 | YRGM | ≤ 0.25
41 | FLVN | ≤ 0.25
42 | WQRD | ≤ 0.25
43 | WKFE | ≤ 0.25
44 | TFPQ | ≤ 0.25
45 | VDMM | ≤ 0.25
46 | MSGN | ≤ 0.25
47 | HESN | ≤ 0.25
48 | LDNW | ≤ 0.25
49 | HNCN | ≤ 0.25
50 | PCYG | ≤ 0.25
51 | AGLG | 9.25
52 | NFEE | ≤ 0.25

Row | Variant | enrichment ratio
53 | SLTA | 1.44
54 | AREL | ≤ 0.25
55 | GKTP | ≤ 0.25
56 | KKSR | ≤ 0.25
57 | KIMC | ≤ 0.25
58 | LYFT | ≤ 0.25
59 | AAEL | ≤ 0.25
60 | KMPR | ≤ 0.25
61 | RKDI | ≤ 0.25
62 | HHPH | ≤ 0.25
63 | MIIP | ≤ 0.25
64 | NAVN | ≤ 0.25
65 | GMKM | ≤ 0.25
66 | YWIS | ≤ 0.25
67 | ALQV | ≤ 0.25
68 | TVAR | 7.02
69 | KRRN | ≤ 0.25
70 | HEYD | ≤ 0.25
71 | STWS | ≤ 0.25
72 | VYQG | ≤ 0.25
73 | MDTN | ≤ 0.25
74 | MITG | ≤ 0.25
75 | WTFA | ≤ 0.25
76 | MDKD | ≤ 0.25
77 | ITCS | ≤ 0.25
78 | GLHV | ≤ 0.25

Row | Variant | enrichment ratio
79 | RIWD | ≤ 0.25
80 | TFLP | ≤ 0.25
81 | PADT | ≤ 0.25
82 | NKYK | ≤ 0.25
83 | SGMG | 0.699
84 | WCFN | ≤ 0.25
85 | MKNQ | ≤ 0.25
86 | WEFL | ≤ 0.25
87 | KVDN | ≤ 0.25
88 | KSDG | ≤ 0.25
89 | TTPI | 4.3
90 | NEHH | ≤ 0.25
91 | RDGH | ≤ 0.25
92 | REGA | ≤ 0.25
93 | QVFI | ≤ 0.25
94 | PHLL | ≤ 0.25
95 | EHQR | ≤ 0.25
96 | QTFM | 7.68
97 | MFIV | ≤ 0.25
98 | PHPT | ≤ 0.25
99 | ECMH | ≤ 0.25
100 | HSQV | ≤ 0.25
101 | MDMS | ≤ 0.25
102 | MMPL | ≤ 0.25
103 | NIMA | ≤ 0.25
104 | FQGC | ≤ 0.25

Row | Variant | enrichment ratio
105 | NKVC | ≤ 0.25
106 | KLWE | ≤ 0.25
107 | TNVR | ≤ 0.25
108 | SRRD | 1.13
109 | GLQG | ≤ 0.25
110 | VCIR | ≤ 0.25
111 | SLMC | 3.3
112 | FRTR | ≤ 0.25
113 | YRLA | ≤ 0.25
114 | MAKT | ≤ 0.25
115 | STSG | 8.56
116 | HFAG | ≤ 0.25
117 | RRRS | ≤ 0.25
118 | QQFF | 5.6
119 | DHAY | ≤ 0.25
120 | RLEN | ≤ 0.25
121 | ESFE | ≤ 0.25
122 | FQMI | ≤ 0.25
123 | HQQY | ≤ 0.25
124 | PAEY | ≤ 0.25
125 | DTYE | ≤ 0.25
126 | SFLG | 10.9
127 | HKIG | ≤ 0.25
128 | ERKL | ≤ 0.25
129 | QNLF | ≤ 0.25
130 | LCTY | ≤ 0.25

Row | Variant | enrichment ratio
131 | EQYR | ≤ 0.25
132 | HLKP | ≤ 0.25
133 | VHGF | ≤ 0.25
134 | FRIT | ≤ 0.25
135 | TMFR | ≤ 0.25
136 | PVPH | ≤ 0.25
137 | WERR | ≤ 0.25
138 | IADF | ≤ 0.25
139 | FAKN | ≤ 0.25
140 | AWYA | ≤ 0.25
141 | ASNV | 3.04
142 | QDNN | ≤ 0.25
143 | IKVV | ≤ 0.25
144 | WVFE | ≤ 0.25
145 | LCLL | 0.451
146 | KITI | ≤ 0.25
147 | YPYK | ≤ 0.25
148 | GSHV | ≤ 0.25
149 | IVMC | ≤ 0.25
150 | AQQV | ≤ 0.25
151 | NCHG | ≤ 0.25
152 | YKTH | ≤ 0.25
153 | SWPI | ≤ 0.25
